# Source: the supplement of paper PMC8728848
# The list shows a part of the results.
# Columns and labels:
# Experiment in all cases: glycan array binding signal (z-score within array); higher = stronger binding
# Conditions in all cases: glycan notation: IUPAC condensed, linker removed
# [1] = molecular target: Neu5Ac(a2-3)Gal(b1-4)GlcNAc6S
# Method in brief: (§1)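 Glycan array data came from 3228 arrays in the Consortium for Functional Glycomics database, and only arrays with an available protein sequence were kept. Glycan names were put into IUPAC-condensed notation, and columns mapping to the same glycan were averaged. The binding signal is a within-array Z-score, averaged across arrays of one protein sequence run at different concentrations or buffers and across linkers. A negative Z-score can be read as non-binding.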
# [2] = molecular target: Neu5Ac(a2-3)Gal(b1-4)[Fuc(a1-3)]GlcNAc
# Method in brief: as §1
# [3] = molecular target: Neu5Ac(a2-3)Gal(b1-4)[Fuc(a1-3)]GlcNAc(b1-2)Man
# Method in brief: as §1
# [4] = molecular target: Neu5Ac(a2-3)Gal(b1-4)[Fuc(a1-3)]GlcNAc(b1-3)Gal
# Method in brief: as §1
# [5] = molecular target: Neu5Ac(a2-3)Gal(b1-4)[Fuc(a1-3)]GlcNAc(b1-3)Gal(b1-4)GlcNAc
# Method in brief: as §1
# [6] = molecular target: Neu5Ac(a2-3)Gal(b1-4)[Fuc(a1-3)]GlcNAc(b1-3)Gal(b1-4)[Fuc(a1-3)]GlcNAc(b1-3)Gal(b1-4)[Fuc(a1-3)]GlcNAc
# Method in brief: as §1
# [7] = molecular target: Neu5Ac(a2-3)Gal(b1-4)[Fuc(a1-3)]GlcNAc(b1-3)GalNAc
# Method in brief: as §1
# [8] = molecular target: Neu5Ac(a2-3)Gal(b1-4)[Fuc(a1-3)]GlcNAc(b1-6)[Gal(b1-3)]GalNAc
# Method in brief: as §1
# [9] = molecular target: Neu5Ac(a2-3)Gal(b1-4)[Fuc(a1-3)]GlcNAc(b1-6)[Neu5Ac(a2-3)Gal(b1-3)]GalNAc
# Method in brief: as §1
# [10] = molecular target: Neu5Ac(a2-3)Gal(b1-4)[Fuc(a1-3)]GlcNAc6S
# Method in brief: as §1
# [11] = molecular target: Neu5Ac(a2-3)Gal6S(b1-4)GlcNAc
# Method in brief: as §1
# [12] = molecular target: Neu5Ac(a2-3)Gal6S(b1-4)[Fuc(a1-3)]GlcNAc
# Method in brief: as §1
# [13] = molecular target: Neu5Ac(a2-3)GalNAc
# Method in brief: as §1
# [14] = molecular target: Neu5Ac(a2-3)GalNAc(b1-4)GlcNAc
# Method in brief: as §1
# [15] = molecular target: Neu5Ac(a2-3)[GalNAc(b1-4)]Gal(b1-4)Glc
# Method in brief: as §1
# [16] = molecular target: Neu5Ac(a2-3)[GalNAc(b1-4)]Gal(b1-4)GlcNAc
# Method in brief: as §1
# [17] = molecular target: Neu5Ac(a2-3)[GalNAc(b1-4)]Gal(b1-4)GlcNAc(b1-3)GalNAc
# Method in brief: as §1
# [18] = molecular target: Neu5Ac(a2-3)[Neu5Ac(a2-6)]GalNAc
# Method in brief: as §1
# [19] = molecular target: Neu5Ac(a2-6)Gal
# Method in brief: as §1
# [20] = molecular target: Neu5Ac(a2-6)Gal(b1-3)GlcNAc(b1-3)[Gal(b1-4)GlcNAc(b1-6)]Gal(b1-4)Glc
# Method in brief: as §1
# [21] = molecular target: Neu5Ac(a2-6)Gal(b1-4)Glc
# Method in brief: as §1
# [22] = molecular target: Neu5Ac(a2-6)Gal(b1-4)GlcNAc
# Method in brief: as §1
# [23] = molecular target: Neu5Ac(a2-6)Gal(b1-4)GlcNAc(b1-2)Man
# Method in brief: as §1
# [24] = molecular target: Neu5Ac(a2-6)Gal(b1-4)GlcNAc(b1-2)Man(a1-3)Man(b1-4)GlcNAc(b1-4)GlcNAc
# Method in brief: as §1
# [25] = molecular target: Neu5Ac(a2-6)Gal(b1-4)GlcNAc(b1-2)Man(a1-3)[Gal(b1-4)GlcNAc(b1-2)Man(a1-6)]Man(b1-4)GlcNAc(b1-4)GlcNAc
# Method in brief: as §1
# [26] = molecular target: Neu5Ac(a2-6)Gal(b1-4)GlcNAc(b1-2)Man(a1-3)[GlcNAc(b1-2)Man(a1-6)]Man(b1-4)GlcNAc(b1-4)GlcNAc
# Method in brief: as §1
# [27] = molecular target: Neu5Ac(a2-6)Gal(b1-4)GlcNAc(b1-2)Man(a1-3)[GlcNAc(b1-4)][Neu5Ac(a2-6)Gal(b1-4)GlcNAc(b1-2)Man(a1-6)]Man(b1-4)GlcNAc(b1-4)GlcNAc
# Method in brief: as §1
# [28] = molecular target: Neu5Ac(a2-6)Gal(b1-4)GlcNAc(b1-2)Man(a1-3)[Man(a1-6)]Man(b1-4)GlcNAc(b1-4)GlcNAc
# Method in brief: as §1
# [29] = molecular target: Neu5Ac(a2-6)Gal(b1-4)GlcNAc(b1-2)Man(a1-3)[Neu5Ac(a2-3)Gal(b1-4)GlcNAc(b1-2)Man(a1-6)]Man(b1-4)GlcNAc(b1-4)GlcNAc
# Method in brief: as §1
# [30] = molecular target: Neu5Ac(a2-6)Gal(b1-4)GlcNAc(b1-2)Man(a1-3)[Neu5Ac(a2-6)Gal(b1-4)GlcNAc(b1-2)Man(a1-6)]Man(b1-4)GlcNAc(b1-4)GlcNAc
# Method in brief: as §1
# [31] = molecular target: Neu5Ac(a2-6)Gal(b1-4)GlcNAc(b1-2)Man(a1-3)[Neu5Ac(a2-6)Gal(b1-4)GlcNAc(b1-2)Man(a1-6)]Man(b1-4)GlcNAc(b1-4)[Fuc(a1-6)]GlcNAc
# Method in brief: as §1
# [32] = molecular target: Neu5Ac(a2-6)Gal(b1-4)GlcNAc(b1-2)Man(a1-6)Man(b1-4)GlcNAc(b1-4)GlcNAc
# Method in brief: as §1
# [33] = molecular target: Neu5Ac(a2-6)Gal(b1-4)GlcNAc(b1-2)Man(a1-6)[Gal(b1-4)GlcNAc(b1-2)Man(a1-3)]Man(b1-4)GlcNAc(b1-4)GlcNAc
# Method in brief: as §1
# [34] = molecular target: Neu5Ac(a2-6)Gal(b1-4)GlcNAc(b1-2)Man(a1-6)[GlcNAc(b1-2)Man(a1-3)]Man(b1-4)GlcNAc(b1-4)GlcNAc
# Method in brief: as §1
# [35] = molecular target: Neu5Ac(a2-6)Gal(b1-4)GlcNAc(b1-2)Man(a1-6)[Man(a1-3)]Man(b1-4)GlcNAc(b1-4)GlcNAc
# Method in brief: as §1
# [36] = molecular target: Neu5Ac(a2-6)Gal(b1-4)GlcNAc(b1-2)[Neu5Ac(a2-6)Gal(b1-4)GlcNAc(b1-4)]Man(a1-3)[GlcNAc(b1-4)][Neu5Ac(a2-6)Gal(b1-4)GlcNAc(b1-2)[Neu5Ac(a2-6)Gal(b1-4)GlcNAc(b1-6)]Man(a1-6)]Man(b1-4)GlcNAc(b1-4)GlcNAc
# Method in brief: as §1
# [37] = molecular target: Neu5Ac(a2-6)Gal(b1-4)GlcNAc(b1-2)[Neu5Ac(a2-6)Gal(b1-4)GlcNAc(b1-4)]Man(a1-3)[GlcNAc(b1-4)][Neu5Ac(a2-6)Gal(b1-4)GlcNAc(b1-4)Man(a1-6)]Man(b1-4)GlcNAc(b1-4)GlcNAc
# Method in brief: as §1
# [38] = molecular target: Neu5Ac(a2-6)Gal(b1-4)GlcNAc(b1-2)[Neu5Ac(a2-6)Gal(b1-4)GlcNAc(b1-6)]Man(a1-6)[Neu5Ac(a2-6)Gal(b1-4)GlcNAc(b1-2)Man(a1-3)][GlcNAc(b1-4)]Man(b1-4)GlcNAc(b1-4)GlcNAc
# Method in brief: as §1
# [39] = molecular target: Neu5Ac(a2-6)Gal(b1-4)GlcNAc(b1-3)Gal(b1-3)GlcNAc
# Method in brief: as §1
# [40] = molecular target: Neu5Ac(a2-6)Gal(b1-4)GlcNAc(b1-3)Gal(b1-4)GlcNAc
# Method in brief: as §1
# [41] = molecular target: Neu5Ac(a2-6)Gal(b1-4)GlcNAc(b1-3)Gal(b1-4)GlcNAc(b1-2)Man(a1-3)[Neu5Ac(a2-6)Gal(b1-4)GlcNAc(b1-3)Gal(b1-4)GlcNAc(b1-2)Man(a1-6)]GalNAc
# Method in brief: as §1
# [42] = molecular target: Neu5Ac(a2-6)Gal(b1-4)GlcNAc(b1-3)Gal(b1-4)GlcNAc(b1-3)Gal(b1-4)GlcNAc
# Method in brief: as §1
# [43] = molecular target: Neu5Ac(a2-6)Gal(b1-4)GlcNAc(b1-3)Gal(b1-4)GlcNAc(b1-3)Gal(b1-4)GlcNAc(b1-2)Man(a1-3)[Neu5Ac(a2-6)Gal(b1-4)GlcNAc(b1-3)Gal(b1-4)GlcNAc(b1-3)Gal(b1-4)GlcNAc(b1-2)Man(a1-6)]GalNAc
# Method in brief: as §1
# [44] = molecular target: Neu5Ac(a2-6)Gal(b1-4)GlcNAc(b1-3)Gal(b1-4)GlcNAc(b1-3)GalNAc
# Method in brief: as §1
# [45] = molecular target: Neu5Ac(a2-6)Gal(b1-4)GlcNAc(b1-3)Gal(b1-4)GlcNAc(b1-3)[Neu5Ac(a2-6)Gal(b1-4)GlcNAc(b1-3)Gal(b1-4)GlcNAc(b1-6)]GalNAc
# Method in brief: as §1
binder,measurement,setting,value
"ABA (Agaricus bisporus), Q00022 (protein) MTYTISIRVYQTTPKGFFRPVERTNWKYANGGTWDEVRGEYVLTMGGSGTSGSLRFVSSDTDESFVATFGVHNYKRWCDIVTNLTNEQTALVINQEYYGVPIRDQARENQLTSYNVANAKGRRFAIEYTVTEGDNLKANLIIG",glycan array binding signal (z-score),[1],-0.243
same,glycan array binding signal (z-score),[2],-0.238
same,glycan array binding signal (z-score),[3],-0.254
same,glycan array binding signal (z-score),[4],-0.252
same,glycan array binding signal (z-score),[5],-0.322
same,glycan array binding signal (z-score),[6],-0.079
same,glycan array binding signal (z-score),[7],-0.183
same,glycan array binding signal (z-score),[8],-0.199
same,glycan array binding signal (z-score),[9],-0.22
same,glycan array binding signal (z-score),[10],-0.286
same,glycan array binding signal (z-score),[11],-0.232
same,glycan array binding signal (z-score),[12],-0.264
same,glycan array binding signal (z-score),[13],-0.259
same,glycan array binding signal (z-score),[14],-0.276
same,glycan array binding signal (z-score),[15],-0.249
same,glycan array binding signal (z-score),[16],-0.198
same,glycan array binding signal (z-score),[17],1.31
same,glycan array binding signal (z-score),[18],-0.256
same,glycan array binding signal (z-score),[19],-0.234
same,glycan array binding signal (z-score),[20],-0.205
same,glycan array binding signal (z-score),[21],-0.228
same,glycan array binding signal (z-score),[22],-0.208
same,glycan array binding signal (z-score),[23],-0.097
same,glycan array binding signal (z-score),[24],-0.228
same,glycan array binding signal (z-score),[25],-0.223
same,glycan array binding signal (z-score),[26],-0.037
same,glycan array binding signal (z-score),[27],-0.291
same,glycan array binding signal (z-score),[28],-0.24
same,glycan array binding signal (z-score),[29],-0.256
same,glycan array binding signal (z-score),[30],-0.211
same,glycan array binding signal (z-score),[31],-0.277
same,glycan array binding signal (z-score),[32],-0.243
same,glycan array binding signal (z-score),[33],-0.295
same,glycan array binding signal (z-score),[34],1.83
same,glycan array binding signal (z-score),[35],-0.281
same,glycan array binding signal (z-score),[36],-0.266
same,glycan array binding signal (z-score),[37],-0.249
same,glycan array binding signal (z-score),[38],-0.262
same,glycan array binding signal (z-score),[39],-0.209
same,glycan array binding signal (z-score),[40],-0.198
same,glycan array binding signal (z-score),[41],-0.193
same,glycan array binding signal (z-score),[42],-0.265
same,glycan array binding signal (z-score),[43],0.531
same,glycan array binding signal (z-score),[44],-0.201
same,glycan array binding signal (z-score),[45],2.26
